According to patent publication US20250361299A1 (published 2025):
One block for each binder: values may come before it.

How the values were obtained:
[1] = target: T1, Recombinant human EGFR (human, UniProt P00533 in part); experiment: ELISA; without uPA
[2] = target: T2, Human CD3 protein (human, UniProt P07766 23-126); experiment: ELISA; without uPA
T2 chain: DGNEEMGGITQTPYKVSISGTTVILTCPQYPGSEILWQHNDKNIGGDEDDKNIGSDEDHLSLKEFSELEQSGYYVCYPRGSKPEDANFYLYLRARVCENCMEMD

[3] = target: T1, Recombinant human EGFR; experiment: ELISA; with uPA
[4] = target: T2, Human CD3 protein; experiment: ELISA; with uPA
[5] = target: T2, Human CD3 protein; experiment: ELISA; with uPA
[6] = target: T2, Human CD3 protein; experiment: ELISA; with uPA
[7] = target: T2, Human CD3 protein; experiment: ELISA; without uPA
[8] = target: T2, Human CD3 protein; experiment: ELISA

B1: 1.4.3-Pa proBiTE (bispecific antibody)
heavy: QDGNEEMGGIGGGSQDGNEEMGGGGGSGGGSGLSGRSDNHGGSEVQLVESGGGLVQPGGSLRLSCAASGFTFNTYAMNWVRQAPGKGLEWVARIRSKYNNYATYYADSVKGRFTISRDDSKNTLYLQMNSLRAEDTAVYYCARHGNFGSSYVSYFAYWGQGTTVTVSSGGGSSGGGGSGGGGSQVQLQESGPGLVKPSETLSLTCTVSGGSVSSGDYYWTWIRQSPGKGLEWIGHIYYSGNTNYNPSLKSRLTISIDTSKTQFSLKLSSVTAADTAIYYCVRDRVTGAFDIWGQGTMVTVSSASTKGPSVFPLAPSSKSTSGGTAALGCLVKDYFPEPVTVSWNSGALTSGVHTFPAVLQSSGLYSLSSVVTVPSSSLGTQTYICNVNHKPSNTKVDKKVEPKS[human IgG1 Fc with T366L Y407H (EU numbers) cut from this listing]
light: EIVVTQSPATLSVSPGERATLSCRSSTGAVTTSNYANWVQQKPGQAPRGLIGGANKRAPGVPARFSGSLSGDEATLTISSLQSEDFAVYYCALWYSNLWVFGQGTKLEIKGGGGSGGGGSGGGGSDIQMTQSPSSLSASVGDRVTITCQASQDISNYLNWYQQKPGKAPKLLIYDASNLETGVPSRFSGSGSGTDFTFTISSLQPEDIATYFCQHFDHLPLAFGGGTKVEIKRTVAAPSVFIFPPSDEQLKSGTASVVCLLNNFYPREAKVQWKVDNALQSGNSQESVTEQDSKDSTYSLSSTLTLSKADYEKHKVYACEVTHQGLSSPVTKSFNRGE[human IgG1 Fc with T366L Y407H (EU numbers) cut from this listing]
EC50 [1]: 0.193 µg/mL | EC50 [2]: ~29.9 µg/mL

B2: 1.4.3-Pa proBiTE after uPA digestion (bispecific antibody)
heavy: SDNHGGSEVQLVESGGGLVQPGGSLRLSCAASGFTFNTYAMNWVRQAPGKGLEWVARIRSKYNNYATYYADSVKGRFTISRDDSKNTLYLQMNSLRAEDTAVYYCARHGNFGSSYVSYFAYWGQGTTVTVSSGGGSSGGGGSGGGGSQVQLQESGPGLVKPSETLSLTCTVSGGSVSSGDYYWTWIRQSPGKGLEWIGHIYYSGNTNYNPSLKSRLTISIDTSKTQFSLKLSSVTAADTAIYYCVRDRVTGAFDIWGQGTMVTVSSASTKGPSVFPLAPSSKSTSGGTAALGCLVKDYFPEPVTVSWNSGALTSGVHTFPAVLQSSGLYSLSSVVTVPSSSLGTQTYICNVNHKPSNTKVDKKVEPKS[human IgG1 Fc with T366L Y407H (EU numbers) cut from this listing]
light: B1 light
EC50 [3]: 0.138 µg/mL | EC50 [4]: 0.0443 µg/mL

Next, values leading:

EC50 [5]: 2.71 µg/mL
B3: 1.4.3 proBiTE after uPA digestion (bispecific antibody)
heavy: SDNHGGSEVQLVESGGGLVQPGGSLRLSCAASGFTFNTYAMNWVRQAPGKGLEWVARIRSKYNNYATYYADSVKGRFTISRDDSKNTLYLQMNSLRAEDTAVYYCARHGNFGSSYVSYFAYWGQGTTVTVSSGGGSSGGGGSGGGGSEVQLVETGGGVVQPGRSLRLSCAASGFTFSSYAMHWVRQAPGKGLEWVAVISYDGSNKYYADSVKGRFTISRDNSKNTLYLQMNSLRAEDTAVYYCARGYVARGDFDYWGQGTLVTVSSASTKGPSVFPLAPSSKSTSGGTAALGCLVKDYFPEPVTVSWNSGALTSGVHTFPAVLQSSGLYSLSSVVTVPSSSLGTQTYICNVNHKPSNTKVDKKVEPKS[human IgG1 Fc with T366L Y407H (EU numbers) cut from this listing]
light: EIVVTQSPATLSVSPGERATLSCRSSTGAVTTSNYANWVQQKPGQAPRGLIGGANKRAPGVPARFSGSLSGDEATLTISSLQSEDFAVYYCALWYSNLWVFGQGTKLEIKGGGGSGGGGSGGGGSDVVMTQSPSTLSASVGDRVTITCRASQSMSRWLAWYQQKPGKGPKLLIYATSTLQSGVPSRFSGSGSGTEFTLTISSLQPEDFATYYCQQLDSFPFSFTFGPGTKVDLKRTVAAPSVFIFPPSDEQLKSGTASVVCLLNNFYPREAKVQWKVDNALQSGNSQESVTEQDSKDSTYSLSSTLTLSKADYEKHKVYACEVTHQGLSSPVTKSFNRGE[human IgG1 Fc with T366L Y407H (EU numbers) cut from this listing]

EC50 [6]: 0.633 µg/mL
B4: 1.3 proBiTE after uPA digestion (bispecific antibody)
heavy: B3 heavy
light: B3 light

EC50 [7]: 72.7 µg/mL
B5: 1.4.3 proBiTE (bispecific antibody)
heavy: QDGNEEMGGIGGGSQDGNEEMGGGGGSGGGSGLSGRSDNHGGSEVQLVESGGGLVQPGGSLRLSCAASGFTFNTYAMNWVRQAPGKGLEWVARIRSKYNNYATYYADSVKGRFTISRDDSKNTLYLQMNSLRAEDTAVYYCARHGNFGSSYVSYFAYWGQGTTVTVSSGGGSSGGGGSGGGGSEVQLVETGGGVVQPGRSLRLSCAASGFTFSSYAMHWVRQAPGKGLEWVAVISYDGSNKYYADSVKGRFTISRDNSKNTLYLQMNSLRAEDTAVYYCARGYVARGDFDYWGQGTLVTVSSASTKGPSVFPLAPSSKSTSGGTAALGCLVKDYFPEPVTVSWNSGALTSGVHTFPAVLQSSGLYSLSSVVTVPSSSLGTQTYICNVNHKPSNTKVDKKVEPKS[human IgG1 Fc with T366L Y407H (EU numbers) cut from this listing]
light: B3 light

EC50 [8]: 23.5 µg/mL
B6: 1.4-Noncleavable (antibody)
chain 1: QDGNEEMGGIGGGSQDGNEEMGGGGGSGGGSGGGSGLSGGAGNHGGSEVQLVESGGGLVQPGGSLRLSCAASGFTFNTYAMNWVRQAPGKGLEWVARIRSKYNNYATYYADSVKGRFTISRDDSKNTLYLQMNSLRAEDTAVYYCARHGNFGSSYVSYFAYWGQGTTVTVSSGGGSSGGGGSGGGGSEVQLVETGGGVVQPGRSLRLSCAASGFTFSSYAMHWVRQAPGKGLEWVAVISYDGSNKYYADSVKGRFTISRDNSKNTLYLQMNSLRAEDTAVYYCARGYVARGDFDYWGQGTLVTVSSASTKGPSVFPLAPSSKSTSGGTAALGCLVKDYFPEPVTVSWNSGALTSGVHTFPAVLQSSGLYSLSSVVTVPSSSLGTQTYICNVNHKPSNTKVDKKVEPKS[human IgG1 Fc with T366L Y407H (EU numbers) cut from this listing]
chain 2: B3 light
